Experimental data reported in PubChem BioAssay AID504706 (National Center for Advancing Translational Sciences (NCATS), 2011).
In all, about 320,000 compounds went through this assay and about 200 (0.062%) were called active. The inconclusive results got no clear call from the source; some entries with a clear call stand among them for comparison. The call rests on the fitted dose curve; in most records, active means well fitted activation curve with a large enough effect; inconclusive means small, poorly fitted or top-dose-only effect; inactive means no such curve, though single readings can be large or run the other way. No potency is given beside an inconclusive call; the fits are too rough.

Assay: qHTS assay for re-activators of p53 using a Luc reporter; further: nearly all actives have a fitted effect of over 45% in size
Conditions: H1299 p53-A138V BP100-luciferase reporter, luminescence, 24 h; series mostly up to 92.2 µM
Outline: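 p53-null H1299 cells stably carrying temperature-sensitive p53-A138V and a BP100-luciferase reporter were pinned with compounds (4-point, 1:5 series) and held 24 hrs at 37 deg C. Luminescence was read 10 min after detection reagent.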
Potency means the concentration at half of the fitted maximal effect; tags describe the fitted curve by direction and shape.

| SMILES | Potency |
| --- | --- |
| S=C(Nc1ccccc1Cl)N1CCCC(c2ccccc2)=N1 | inactive |
| COc1cccc(Nc2ccc(N3CCCCC3)cc2)c1OC | inconclusive [activator, full curve, poor fit] |
| Cc1ccc(/C(O)=C2/C(=O)C(=O)N(CCN3CCOCC3)C2c2ccccn2)cc1 (centres undefined) | inconclusive [activator, full curve, poor fit] |
| CCN(CC)S(=O)(=O)c1cc(C(=O)Oc2cccc(-c3cnc4ccccc4n3)c2)ccc1Br | inconclusive [activator, partial curve, poor fit] |
| COc1ccc(CN(CC2CCCO2)S(=O)(=O)c2ccc(C(=O)O)cc2)cc1OC (centres undefined) | inconclusive [activator, single point] |
| CCN(CC)C(=O)CSc1nc2ccccc2o1 | inconclusive [activator, partial curve, poor fit] |
| CCN1C(=O)/C(=C/c2ccc(N3CCCC3)cc2)NC1=S | inconclusive [activator, full curve, poor fit] |
| CC(C)c1ccc(/C=N/NC(=O)c2ccccc2Cl)cc1 | inconclusive [activator, partial curve, poor fit] |
| Cc1ccc(OCc2nnc(SCC(=O)NC3CCCCC3)n2C)cc1 | inactive |
| CCc1ccc(NC(=O)Nc2ccsc2C(=O)OC)cc1 | inconclusive [activator, full curve, poor fit] |
| CCCn1c(NC(=O)c2ccc([N+](=O)[O-])o2)nc2ccccc21 | inconclusive [activator, full curve, poor fit] |
| Cn1c(=NC(=O)c2ccccc2[N+](=O)[O-])sc2cc(S(C)(=O)=O)ccc21 | inconclusive [activator, full curve, poor fit] |
| CC(C)(C)c1ccc(S(=O)(=O)NCC(=O)Nc2ccc(-c3nc4ccccc4s3)cc2)cc1 | inconclusive [activator, partial curve, poor fit] |
| CC(C)(C)c1ccc(Cn2nnc3c(=O)[nH]c(C4CCN(C(=O)c5ccco5)CC4)nc32)cc1 | inactive |
| COC(=O)c1ccc(C2/C(=C(\O)c3ccc4c(c3)OCCO4)C(=O)C(=O)N2CCCN(C)C)cc1 (centres undefined) | inconclusive [activator, partial curve, poor fit] |
| Cc1ccc(C(=O)COC(=O)CNC(=O)c2ccccc2)s1 | inactive |
| O=C(Nc1ccc(N2CCOCC2)c(Cl)c1)c1ccc([N+](=O)[O-])o1 | inactive |
| COc1cc([N+](=O)[O-])ccc1NC(=O)CCCOc1cccc(C)c1C | inactive |
| O=C(CN1C(=O)NC(Cc2ccccc2)C1=O)Nc1ccccc1 (centres undefined) | inconclusive [activator, partial curve, poor fit] |
| O=C(Nc1ccc2c(c1)OCO2)c1noc2c1CCCCC2 | inconclusive [activator, partial curve, poor fit] |
| O=C(CSc1ccc2ccccc2n1)c1ccccc1 | inconclusive [activator, full curve, poor fit] |
| O=C(O)c1ccccc1C(=O)NCC(O)COCC1CC=CCC1 (centres undefined) | inconclusive [activator, partial curve, poor fit] |
| Cc1ccc2nc(-c3ccc(N4C(=N)SC5CS(=O)(=O)CC54)cc3)sc2c1 (centres undefined) | inconclusive [activator, full curve, poor fit] |

| SMILES | Potency |
| --- | --- |
| CCOC(=O)NC(=O)CSc1nc(C)cc(C)c1C#N | inactive |
| COc1ccc(NS(=O)(=O)c2c(C(=O)N3CCCCCC3)c(C)n(C)c2C)cc1 | inactive |
| CCN(CC)S(=O)(=O)c1cc(C(=O)NC2CCCCC2)ccc1C | inconclusive [activator, partial curve, poor fit] |
| Cc1cccc(-c2noc(-c3cc4ccccc4oc3=O)n2)c1 | inconclusive [activator, single point] |
| Cc1ccc(/C=N/Nc2ncnc3nc[nH]c23)cc1 | inactive |
| COc1ccc(-n2ncc(N(C)n3cccc3)c(Cl)c2=O)cc1 | inconclusive [activator, partial curve, poor fit] |
| CC(C)OC(=O)CSc1nnc2c(n1)[nH]c1ccc(F)cc12 | inconclusive [activator, single point] |
| CC(=O)Nc1ccc(-c2cn3c(n2)SCC3)cc1 | inconclusive [activator, partial curve, poor fit] |
| COc1ccc(C(c2nnnn2C(C)(C)C)N2CCN(c3nc4ccccc4s3)CC2)cc1 (centres undefined) | inconclusive [activator, full curve, poor fit] |
| Cc1cccc(CNc2ccc(S(=O)(=O)N3CCCCC3)cc2)c1 | inconclusive [activator, single point] |
| Cc1ccc2nc(NC(=O)c3ccc(NS(=O)(=O)c4cccs4)cc3)sc2c1 | inconclusive [activator, full curve, poor fit] |
| c1ccc(CSc2ccc(-c3cccs3)nn2)cc1 | inconclusive [activator, partial curve, poor fit] |
| O=C(CCc1ccccc1)Nc1ccc2c(c1)C(=O)OC2 | inconclusive [activator, partial curve, poor fit] |
| C#CCOc1c(Cl)cc(/C=N/NC(N)=S)cc1OCC | inconclusive [activator, full curve, poor fit] |
| Cc1ccccc1OCC(=O)N/N=C/c1cc2ccccc2nc1Cl | inactive |
| Cc1csc2ncc(C(=O)NCc3ccccc3Cl)c(=O)n12 | inactive |
| C[C@@]12C(=O)Nc3ccc(Br)cc3C(=O)N1[C@H]1c3cc(Cl)ccc3OC[C@@H]1[C@@H]2c1ccccc1 | inactive |
| Clc1ccc(-c2cc(-c3nnc4n3CCCCC4)c3ccccc3n2)cc1 | inconclusive [activator, partial curve, poor fit] |
| CSc1cccc(NC(=O)COc2ccccc2C)c1 | inactive |
| CC(C)COC(=O)c1ccc2c(c1O)C(=O)c1ccccc1C2=O | inconclusive [activator, partial curve, poor fit] |
| CC(C)OCc1c(C(=O)Nc2nccs2)oc2ccccc12 | inactive |
| COc1ccccc1NC(=O)COC(=O)CNC(=O)c1ccc(OC)c(OC)c1 | inconclusive [activator, partial curve, poor fit] |
| O=C1CC(c2ccc(F)cc2)c2cc3c(cc2N1)CCC3 (centres undefined) | inconclusive [activator, single point] |

| SMILES | Potency |
| --- | --- |
| O=C(NCCC1=CCCCC1)C(=O)NCc1ccccc1Cl | inconclusive [activator, single point] |
| COc1ccc(/C=N/NC(=O)c2ccccc2O)cc1Cn1cc(Cl)cn1 | inactive |
| O=C(NCc1cccs1)c1nc2c(nnn2Cc2ccccc2Cl)c(=O)[nH]1 | inconclusive [activator, partial curve, poor fit] |
| O=S(=O)(c1ccccc1)N1CCCc2ccccc21 | inactive |
| COc1cccc(C(=O)N(Cc2cc3cc(C)ccc3[nH]c2=O)CC2CCCO2)c1 (centres undefined) | inactive |
| O=C(CSc1ccccc1)Nc1ccc2c(c1)OCO2 | inconclusive [activator, full curve, poor fit] |
| O=C(CSCC(=O)N1CCCc2ccccc21)Nc1nc(-c2ccccc2)cs1 | inactive |
| O=C1N=C(N2CCCCC2)SC1=C1CCCC1 | inconclusive [activator, full curve, poor fit] |
| CCCn1nnc(NC(=O)c2cc3ccccc3o2)n1 | inconclusive [activator, partial curve, poor fit] |
| COc1ccc2nc(C)cc(Sc3nc4ccccc4s3)c2c1 | inactive |
| CCc1ccc(-c2csc(NC(=O)C3CCCO3)c2C(=O)OC(C)C)cc1 (centres undefined) | inactive |
| CCOC(=O)CSc1nc2ccc(C)cc2cc1C#N | inconclusive [activator, full curve, poor fit] |
| Cc1c(C)c2ccc(OCC(=O)Nc3cccnc3)c(C)c2oc1=O | inconclusive [activator, partial curve, poor fit] |
| N/C(=N\OC(=O)c1ccco1)c1cccc(Br)c1 | inactive |
| CC(C)Cn1c(SC(C)C(=O)NC2CC2)nnc1-c1ccccc1F (centres undefined) | inactive |
| CCOC(=O)c1nnc2cc(-c3ccccc3)nn2c1C | inactive |
| O=C(c1ccc2c(c1)OCCO2)C1CCN(S(=O)(=O)c2ccccc2F)CC1 | inactive |
| FC(F)(F)COc1ccc(-c2nnc(SCc3ccccc3)o2)cn1 | inactive |
| CCOC(=O)N/N=C/c1cc(C)n(-c2ccccc2)c1C | inconclusive [activator, partial curve, poor fit] |
| CCC(=O)Nc1cccc(NC(=O)CSc2nnnn2C2CCCC2)c1 | inconclusive [activator, partial curve, poor fit] |
| O=C(Nc1ccc(F)cc1F)c1cc2n(n1)C(C(F)(F)F)C1CCCCC1N2 (centres undefined) | inconclusive [activator, full curve, poor fit] |
| CC1CCN(C(=O)COC(=O)c2cc(=O)[nH]c3ccccc23)CC1 | inconclusive [activator, partial curve, poor fit] |
| c1ccc(-n2ncc3c(N4CCN(c5ccccn5)CC4)nc(N4CCOCC4)nc32)cc1 | inconclusive [activator, partial curve, poor fit] |
